# Laboratory results from the supplement of paper PMC8728848.
# This is one part of the list.
# B1: CLEC5A (Homo sapiens), Q9NY25 (protein)
# chain: MNWHMIISGLIVVVLKVVGMTLFLLYFPQIFNKSNDGFTTTRSYGTVSQIFGSSSPSPNGFITTRSYGTVCPKDWEFYQARCFFLSTSESSWNESRDFCKGKGSTLAIVNTPEKLKFLQDITDAEKYFIGLIYHREEKRWRWINNSVFNGNVTNQNQNFNCATIGLTKTFDAASCDISYRRICEKNAK
# What was measured:
# Assay in all cases: glycan array binding signal (z-score within array); higher = stronger binding
# Conditions in all cases: glycan notation: IUPAC condensed, linker removed
# Gal6S(b1-4)Glc6S = biological target: Gal6S(b1-4)Glc6S
# Method in brief: (§1)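 Glycan array data came from 3228 arrays in the Consortium for Functional Glycomics database, and only arrays with an available protein sequence were kept. Glycan names were put into IUPAC-condensed notation, and columns mapping to the same glycan were averaged. The binding signal is a within-array Z-score, averaged across arrays of one protein sequence run at different concentrations or buffers and across linkers. A negative Z-score can be read as non-binding.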
# Gal6S(b1-4)GlcNAc = biological target: Gal6S(b1-4)GlcNAc
# Method in brief: as §1
# Gal6S(b1-4)GlcNAc6S = biological target: Gal6S(b1-4)GlcNAc6S
# Method in brief: as §1
# GalNAc(a1-3)Gal = biological target: GalNAc(a1-3)Gal
# Method in brief: as §1
# GalNAc(a1-3)Gal(b1-4)Glc = biological target: GalNAc(a1-3)Gal(b1-4)Glc
# Method in brief: as §1
# GalNAc(a1-3)GalNAc = biological target: GalNAc(a1-3)GalNAc
# Method in brief: as §1
# [1] = biological target: GalNAc(a1-3)GalNAc(a1-3)Gal(a1-4)Gal(b1-4)GlcNAc
# Method in brief: as §1
# [2] = biological target: GalNAc(a1-3)GalNAc(b1-3)Gal(a1-4)Gal(b1-4)Glc
# Method in brief: as §1
# [3] = biological target: GalNAc(a1-3)GalNAc(b1-3)Gal(a1-4)Gal(b1-4)GlcNAc
# Method in brief: as §1
# GalNAc(b1-3)Gal = biological target: GalNAc(b1-3)Gal
# Method in brief: as §1
# [4] = biological target: GalNAc(b1-3)Gal(a1-4)Gal(b1-4)GlcNAc
# Method in brief: as §1
# [5] = biological target: GalNAc(b1-3)Gal(a1-4)Gal(b1-4)GlcNAc(b1-3)Gal(b1-4)Glc
# Method in brief: as §1
# [6] = biological target: GalNAc(b1-3)Gal(a1-6)Gal(b1-4)Glc
# Method in brief: as §1
# GalNAc(b1-3)GalNAc = biological target: GalNAc(b1-3)GalNAc
# Method in brief: as §1
# GalNAc(b1-3)GlcNAc = biological target: GalNAc(b1-3)GlcNAc
# Method in brief: as §1
# GalNAc(b1-4)Gal(b1-4)Glc = biological target: GalNAc(b1-4)Gal(b1-4)Glc
# Method in brief: as §1
# [7] = biological target: GalNAc(b1-4)Gal3S(b1-4)Glc
# Method in brief: as §1
# GalNAc(b1-4)GlcNAc = biological target: GalNAc(b1-4)GlcNAc
# Method in brief: as §1
# [8] = biological target: GalNAc(b1-4)GlcNAc(b1-2)Man
# Method in brief: as §1
# [9] = biological target: GalNAc(b1-4)GlcNAc(b1-2)Man(a1-3)[GalNAc(b1-4)GlcNAc(b1-2)Man(a1-6)]Man(b1-4)GlcNAc(b1-4)GlcNAc
# Method in brief: as §1
# [10] = biological target: GalNAc(b1-4)GlcNAc(b1-3)GalNAc(b1-4)GlcNAc
# Method in brief: as §1
# GalNAc(b1-4)GlcNAc6S = biological target: GalNAc(b1-4)GlcNAc6S
# Method in brief: as §1
# [11] = biological target: GalNAc(b1-4)[Neu5Ac(a2-6)]Gal(b1-4)Glc
# Method in brief: as §1
# GalNAc(b1-6)GalNAc = biological target: GalNAc(b1-6)GalNAc
# Method in brief: as §1
# [12] = biological target: GalNAc3S(b1-4)Gal3S(b1-4)Glc
# Method in brief: as §1
# GalNAc3S(b1-4)GlcNAc = biological target: GalNAc3S(b1-4)GlcNAc
# Method in brief: as §1
# GalNAc3S(b1-4)GlcNAc3S = biological target: GalNAc3S(b1-4)GlcNAc3S
# Method in brief: as §1
# [13] = biological target: GalNAc3S(b1-4)[Fuc(a1-3)]GlcNAc
# Method in brief: as §1
# GalNAc4S6S(b1-4)GlcNAc = biological target: GalNAc4S6S(b1-4)GlcNAc
# Method in brief: as §1
# GalNAc6S(b1-4)GlcNAc = biological target: GalNAc6S(b1-4)GlcNAc
# Method in brief: as §1
# Glc(a1-2)Glc = biological target: Glc(a1-2)Glc
# Method in brief: as §1
# [14] = biological target: Glc(a1-2)Glc(a1-3)Glc(a1-3)Man(a1-2)Man(a1-2)Man(a1-3)[Man(a1-3)[Man(a1-6)]Man(a1-6)]Man(b1-4)GlcNAc
# Method in brief: as §1
# Glc(a1-3)Glc = biological target: Glc(a1-3)Glc
# Method in brief: as §1
# [15] = biological target: Glc(a1-3)Glc(a1-3)Man(a1-2)Man(a1-2)Man(a1-3)[Man(a1-3)[Man(a1-6)]Man(a1-6)]Man(b1-4)GlcNAc
# Method in brief: as §1
# [16] = biological target: Glc(a1-3)Man(a1-2)Man(a1-2)Man(a1-3)[Man(a1-2)Man(a1-3)[Man(a1-2)Man(a1-6)]Man(a1-6)]Man(b1-4)GlcNAc(b1-4)GlcNAc
# Method in brief: as §1
# Glc(a1-4)Glc = biological target: Glc(a1-4)Glc
# Method in brief: as §1
# Glc(a1-4)Glc(a1-4)Glc = biological target: Glc(a1-4)Glc(a1-4)Glc
# Method in brief: as §1
# [17] = biological target: Glc(a1-4)Glc(a1-4)Glc(a1-4)Glc
# Method in brief: as §1
# [18] = biological target: Glc(a1-4)Glc(a1-4)Glc(a1-4)Glc(a1-4)Glc
# Method in brief: as §1
# [19] = biological target: Glc(a1-4)Glc(a1-4)Glc(a1-4)Glc(a1-4)Glc(a1-4)Glc
# Method in brief: as §1
# [20] = biological target: Glc(a1-4)Glc(a1-4)Glc(a1-4)Glc(a1-4)Glc(a1-4)Glc(a1-4)Glc
# Method in brief: as §1
# [21] = biological target: Glc(a1-4)Glc(a1-4)Glc(a1-4)Glc(a1-4)Glc(a1-4)Glc(a1-4)Glc(a1-4)Glc
# Method in brief: as §1
# [22] = biological target: Glc(a1-4)Glc(a1-4)Glc(a1-4)Glc(a1-4)Glc(a1-4)Glc(a1-4)Glc(a1-4)Glc(a1-4)Glc
# Method in brief: as §1
# [23] = biological target: Glc(a1-4)Glc(a1-4)Glc(a1-4)Glc(a1-4)Glc(a1-4)Glc(a1-4)Glc(a1-4)Glc(a1-4)Glc(a1-4)Glc
# Method in brief: as §1
# [24] = biological target: Glc(a1-4)Glc(a1-4)Glc(a1-4)Glc(a1-4)Glc(a1-4)Glc(a1-4)Glc(a1-4)Glc(a1-4)Glc(a1-4)Glc(a1-4)Glc
# Method in brief: as §1
binder,measurement,setting,value
B1,glycan array binding signal (z-score),Gal6S(b1-4)Glc6S,0.125
same,glycan array binding signal (z-score),Gal6S(b1-4)GlcNAc,0.281
same,glycan array binding signal (z-score),Gal6S(b1-4)GlcNAc6S,0.161
same,glycan array binding signal (z-score),GalNAc(a1-3)Gal,-0.117
same,glycan array binding signal (z-score),GalNAc(a1-3)Gal(b1-4)Glc,-0.32
same,glycan array binding signal (z-score),GalNAc(a1-3)GalNAc,-0.157
same,glycan array binding signal (z-score),[1],-0.892
same,glycan array binding signal (z-score),[2],-0.196
same,glycan array binding signal (z-score),[3],-0.128
same,glycan array binding signal (z-score),GalNAc(b1-3)Gal,0.192
same,glycan array binding signal (z-score),[4],-0.205
same,glycan array binding signal (z-score),[5],-0.273
same,glycan array binding signal (z-score),[6],-0.253
same,glycan array binding signal (z-score),GalNAc(b1-3)GalNAc,-0.568
same,glycan array binding signal (z-score),GalNAc(b1-3)GlcNAc,-0.198
same,glycan array binding signal (z-score),GalNAc(b1-4)Gal(b1-4)Glc,-0.144
same,glycan array binding signal (z-score),[7],-0.32
same,glycan array binding signal (z-score),GalNAc(b1-4)GlcNAc,-0.135
same,glycan array binding signal (z-score),[8],-0.054
same,glycan array binding signal (z-score),[9],0.616
same,glycan array binding signal (z-score),[10],-0.136
same,glycan array binding signal (z-score),GalNAc(b1-4)GlcNAc6S,-0.117
same,glycan array binding signal (z-score),[11],-0.32
same,glycan array binding signal (z-score),GalNAc(b1-6)GalNAc,-0.194
same,glycan array binding signal (z-score),[12],-0.32
same,glycan array binding signal (z-score),GalNAc3S(b1-4)GlcNAc,-0.162
same,glycan array binding signal (z-score),GalNAc3S(b1-4)GlcNAc3S,-0.138
same,glycan array binding signal (z-score),[13],-0.255
same,glycan array binding signal (z-score),GalNAc4S6S(b1-4)GlcNAc,-0.168
same,glycan array binding signal (z-score),GalNAc6S(b1-4)GlcNAc,-0.003
same,glycan array binding signal (z-score),Glc(a1-2)Glc,-0.32
same,glycan array binding signal (z-score),[14],-0.32
same,glycan array binding signal (z-score),Glc(a1-3)Glc,-0.32
same,glycan array binding signal (z-score),[15],-0.32
same,glycan array binding signal (z-score),[16],0.933
same,glycan array binding signal (z-score),Glc(a1-4)Glc,0.008
same,glycan array binding signal (z-score),Glc(a1-4)Glc(a1-4)Glc,-0.031
same,glycan array binding signal (z-score),[17],-0.188
same,glycan array binding signal (z-score),[18],-0.32
same,glycan array binding signal (z-score),[19],1.32
same,glycan array binding signal (z-score),[20],1.03
same,glycan array binding signal (z-score),[21],-0.32
same,glycan array binding signal (z-score),[22],0.066
same,glycan array binding signal (z-score),[23],-0.32
same,glycan array binding signal (z-score),[24],-0.32
